# In publication PMC4336329 (PLoS ONE, 2015):
# The campaign covered roughly 310,000 compounds. About 2,200 (0.71%) showed an effect of 50% or more. Effects have a minus sign here. This is one part of the list.
# Biological target: human ether-à-go-go-related gene (hERG) potassium channel (human, UniProt Q12809)
# Assay: primary screen, population patch clamp on CHO cells stably expressing hERG
# human ether-à-go-go-related gene (hERG) potassium channel, sequence (Q12809 whole entry, looked up): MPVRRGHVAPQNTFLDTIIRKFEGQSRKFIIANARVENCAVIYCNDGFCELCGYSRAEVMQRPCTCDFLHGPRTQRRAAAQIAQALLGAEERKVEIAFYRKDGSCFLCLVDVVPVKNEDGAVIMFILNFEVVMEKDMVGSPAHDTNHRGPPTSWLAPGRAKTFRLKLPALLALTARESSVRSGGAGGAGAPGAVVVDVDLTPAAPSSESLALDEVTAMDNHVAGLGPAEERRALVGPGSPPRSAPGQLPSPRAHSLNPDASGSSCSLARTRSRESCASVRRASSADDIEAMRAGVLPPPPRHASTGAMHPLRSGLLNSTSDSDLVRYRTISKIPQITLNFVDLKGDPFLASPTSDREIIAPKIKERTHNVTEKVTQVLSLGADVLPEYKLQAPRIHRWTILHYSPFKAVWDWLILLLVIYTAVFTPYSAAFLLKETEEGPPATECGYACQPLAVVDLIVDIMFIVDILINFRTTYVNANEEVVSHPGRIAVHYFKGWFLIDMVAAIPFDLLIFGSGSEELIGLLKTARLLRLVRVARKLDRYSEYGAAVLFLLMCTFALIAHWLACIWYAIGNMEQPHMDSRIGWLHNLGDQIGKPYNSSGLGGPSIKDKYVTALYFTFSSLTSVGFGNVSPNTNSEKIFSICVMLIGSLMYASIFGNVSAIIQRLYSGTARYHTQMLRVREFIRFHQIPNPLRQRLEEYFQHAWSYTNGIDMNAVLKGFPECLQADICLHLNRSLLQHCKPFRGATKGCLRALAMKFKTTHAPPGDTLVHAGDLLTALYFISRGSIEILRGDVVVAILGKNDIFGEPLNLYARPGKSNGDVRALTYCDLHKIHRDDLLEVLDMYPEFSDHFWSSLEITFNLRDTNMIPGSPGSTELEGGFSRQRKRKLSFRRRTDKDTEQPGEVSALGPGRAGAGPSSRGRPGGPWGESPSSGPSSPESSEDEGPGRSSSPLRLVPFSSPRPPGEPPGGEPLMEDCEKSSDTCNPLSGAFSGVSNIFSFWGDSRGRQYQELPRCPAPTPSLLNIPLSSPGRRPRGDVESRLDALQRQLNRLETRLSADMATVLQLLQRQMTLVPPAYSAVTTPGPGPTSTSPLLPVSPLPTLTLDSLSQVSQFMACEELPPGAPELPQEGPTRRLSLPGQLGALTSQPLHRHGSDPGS
row,SMILES,"hERG current change (%, negative = inhibition) at 1uM [%]"
1,CN(CC(=O)Nc1ccc(Cl)c(C(F)(F)F)c1)C(=O)c1cc(-c2ccncc2)nc2ccccc12,10.9
2,O=C(CN(Cc1ccccc1F)C(=O)Cn1nnc(-c2cccs2)n1)NCC1CCCO1 (stereo not drawn),2.8
3,CCCC(=O)N1CCN(c2ccc(NC(=O)c3sc4ccccc4c3Cl)cc2)CC1,12.2
4,CNS(=O)(=O)c1cccc(C(=O)OCC(=O)Nc2ccc(Cl)cn2)c1,1.47
5,COc1cc(C(C(=O)NC2CCCCC2)N(Cc2cccs2)C(=O)Cc2c[nH]c3ccccc23)cc(OC)c1OC (stereo not drawn),12.3
6,O=S1OC(c2ccccc2)c2cc(Cl)ccc21 (stereo not drawn),7.85
7,Cc1cc(=O)n(CCc2ccccc2)c(O)c1C#N,27.3
8,O=C1CC[C@@H](O)CCN1CC[C@H](Sc1ccccc1)c1ccccc1,-0.164
9,Cc1ccc(C)c(S(=O)(=O)N2CCCCC2CCNC(=O)C(=O)NC2CC2)c1 (stereo not drawn),5.4
10,O=C(CN1C(=O)C2C3C=CC(C3)C2C1=O)Nc1cccc2c1CCCC2 (stereo not drawn),7.04
11,O=C(CN(c1ccccc1F)S(=O)(=O)c1ccccc1)N1CCCCCC1,6.48
12,Cn1nnnc1SCC(=O)Nc1ccccn1,8.35
13,COc1ccc(C)cc1NC(=O)CN(C)S(=O)(=O)c1ccc2c(c1)n(C)c(=O)c(=O)n2C,18.4
14,COc1cc(NS(=O)(=O)c2ccc(NC(=O)/C(=C/c3ccccc3Cl)NC(=O)c3ccccc3)cc2)nc(OC)n1,7.79
15,CCCOc1ccc(C2C(=O)N(C3CCCCC3)CC(=O)N2C2CC2)cc1OC (stereo not drawn),10.8
16,CCCCc1ccc(S(=O)(=O)N/N=C(/C)c2ccncc2)cc1,11.9
17,O=C(C1CC1)N1CCCN(C(=O)C2CC2)CC1,20.1
18,O=C(COc1ccc(Br)cc1)NCCCN1CCCC1=O,11
19,COc1cc2nc(NCCCN3CCN(C)CC3)n3nc(-c4ccccc4)nc3c2cc1OC,5.18
20,Cc1cc(OCC(=O)Nc2ccc(OCc3ccccc3)cc2)nc(C(C)C)n1,-11.1
21,CC1Cc2ccccc2N1C(=O)CSc1nnnn1Cc1ccccc1 (stereo not drawn),-4.73
22,O=C(CN1C(=O)C2C3C=CC(C3)C2C1=O)NCc1ccccc1 (stereo not drawn),3.17
23,NC(=S)N/N=C1\CC(n2nnnc2-c2ccccc2Cl)C2COC1O2 (stereo not drawn),-15.4

row,SMILES,"hERG current change (%, negative = inhibition) at 1uM [%]"
1,Cn1c2ccccc2c2cc(/C=N/NC(=O)c3cc(O)ccc3O)ccc21,4.21
2,COC(CNC(=O)Cn1ncc2ccsc2c1=O)OC,17.1
3,CCN1C(=O)[C@@H]2[C@@H](c3ccc(-c4ccc(OC)cc4)c(OC)c3)N3CCC[C@@]3(C(=O)OC)[C@@H]2C1=O.O=C(O)C(F)(F)F,15.8
4,CCOC(=O)C1CCN(S(=O)(=O)c2ccccc2[N+](=O)[O-])CC1,12.1
5,CCn1nc(C)c(NC(=O)/C=C/c2ccc(OC)c(COc3ccc(Br)cc3)c2)c1C,-3.7
6,Cc1cc(C)c2c(N)c(C(=O)c3ccc(Cl)cc3)sc2n1,12
7,Cc1ccc(-n2nnnc2SCC(=O)c2cc(C)n(-c3cc(C)on3)c2C)cc1,7.56
8,CC(=O)Nc1cccc(-c2cn3ccccc3n2)c1,-6.8
9,CC(OC(=O)CCC(=O)c1ccccc1)C(=O)Nc1ccc(F)cc1 (stereo not drawn),-299
10,CCOC(=O)C1C(CC)NC(=S)NC1(C)O (stereo not drawn),19.9
11,COc1cc2[nH]c(=S)nc(Nc3ccc(NC(C)=O)cc3)c2cc1OC,3.3
12,CC(=O)Nc1ccc(NC(=O)C2CCCN2S(=O)(=O)c2cccc3nsnc23)cc1 (stereo not drawn),14.6
13,Cn1nccc1NC(=O)CC(CC(=O)O)c1ccccc1 (stereo not drawn),9.27
14,CCOC(=O)C1CCCN(c2ncnc3c2cnn3-c2ccc(Cl)cc2)C1 (stereo not drawn),-4.31
15,COc1ccc(CC(=O)Nc2ccccc2N2CCCCC2)cc1OC,7.66
16,COC(=O)c1ccc(OC(=O)c2ccccc2F)cc1,17.2
17,CC[C@]12CCCN3CCc4c(n(c5ccccc45)[C@@](O)(C(=O)OC)C1)[C@@H]32,-85.4
18,CC1CCC(C(C)C)C(OCC(O)C[N+]2(C)CCCCC2)C1.[I-] (stereo not drawn),6.56
19,Cc1ccc2nc(Cl)c(CNCc3ccccc3)cc2c1,7.25
20,Cc1ccc2cc(C#N)c(NCCNC(=O)C3CCC3)nc2c1C,5.66
21,COc1cccc(NC(=O)CN(C)C(=O)CNC(=O)c2sc3ccccc3c2Cl)c1,11.5
22,CC/C(=N\NC(=O)c1csc(C)c1C)c1cccs1,13
23,Cc1ccc(CN2C(=NC(=O)CCC(=O)O)SC3CS(=O)(=O)CC32)cc1 (stereo not drawn),9.14

row,SMILES,"hERG current change (%, negative = inhibition) at 1uM [%]"
1,COc1ccc(S(=O)(=O)N2CCOCC2)cc1C(=O)NC1CCCCCC1,7.41
2,COC(=O)CN(c1ccc(OCc2ccccc2)cc1)S(C)(=O)=O,5.03
3,CCC(C(=O)OC)n1cnc2c(nnn2-c2ccccc2)c1=O (stereo not drawn),-0.92
4,COc1cccc(CNC(=O)CCc2ccc(OC)c(OC)c2)c1,8.83
5,CCOc1ccc2nc(NC(=O)C3CCN(S(=O)(=O)c4cnc[nH]4)CC3)sc2c1,2.22
6,COc1cc2c(cc1OC)/C(=C/C(=O)N1CCOCC1)NC(C)(C)C2.Cl,13.1
7,COc1ccc(S(=O)(=O)N(C)CC(=O)NC2CC2)cc1,6.72
8,COc1cccc(OC)c1C(=O)NCCc1ccccc1,12.6
9,O=C1Nc2ccccc2C(=O)N2[C@H](c3ccccc3)[C@@H]3C(=O)N(Cc4ccccc4)C(=O)[C@@H]3[C@H]12,4.42
10,CC1SC(c2ccc(Cl)cc2)NC1=O (stereo not drawn),15
11,O=Cc1c(N2CCOCC2)nc2ccccn2c1=O,13.3
12,COC(=O)c1ccc(NC(=O)CN2CCN(c3ccc(Cl)cc3)CC2)cc1,14.5
13,COCc1c(C(N)=O)nnn1-c1nonc1N,11
14,C/C(=N\O)C(=O)NCC1CCNCC1,7.76
15,C=CCOC(=O)C1=C[C@H](c2csc3ccccc23)C[C@H](OCc2ccc(CO)cc2)O1,14
16,NC(=O)c1ccc(NC(=O)CN2CCN(c3ccccc3)CC2)cc1,13.5
17,CCCCCSc1nncc(=O)[nH]1,-8.26
18,CCc1ccc(OCCSc2nc3ccccc3n2CCC(=O)O)cc1,22.1
19,O=C1CC2CS(=O)(=O)CC2N1c1ccc(Oc2ccccc2)cc1 (stereo not drawn),9.35
20,N#Cc1ccccc1NC(=O)c1cccc(COc2ccc(Cl)cc2Cl)c1,10.7
21,O=C1CCNc2ccc(-c3ccccc3)cc21,3.55
22,COc1ccc(C(C)NC(=O)C2CCCO2)cc1OC (stereo not drawn),-0.285
23,Cc1ccc2oc(=O)c3cc(C(=O)NCCCN4CCc5ccccc5C4)sc3c2c1,10.3

row,SMILES,"hERG current change (%, negative = inhibition) at 1uM [%]"
1,CCCCN(CC)CCNC(=O)CNC(=O)Cn1ccc2ccccc2c1=O,10.2
2,O=C(NCCCO)C(=O)NCCc1ccc(Cl)cc1,5.22
3,O=C(CCc1ccccc1)NNC(=O)c1cccc(F)c1,16.1
4,O=C(NCCOc1ccccc1F)Nc1ccc(Br)cc1,15.6
5,Cc1ccnc2nc(C(=O)OCC(=O)NCc3cccc(Cl)c3)nn12,-3.99
6,N#Cc1nc(-c2ccc(F)cc2)oc1NCc1ccccc1,8.86
7,COc1ccc(Cc2nnc(NC(=O)c3ccccc3Cl)s2)cc1OC,15.1
8,CN(Cc1ccccc1)c1c([N+](=O)[O-])c(=O)n(C)c2ccccc12,11.3
9,Fc1ccc(C2=Nc3cccc4cccc(c34)N2)cc1,16.6
10,CCOc1ccc(OCCCCNC(C)(C)C)cc1.O=C(O)C(=O)O,11.5
11,Cc1ccccc1C(=O)NC1CCN(CC(=O)Nc2ccc3c(c2)OCCO3)CC1,9.88
12,Cc1ccc(-n2nc(C)c(=O)c(-c3ccccc3)c2NC(=O)C(C)C)cc1,16.2
13,COc1ccc(CCNc2nc(C)cc(=O)[nH]2)cc1OC,-1.28
14,CC(C)C(=O)Nc1ccc(NC(=O)c2ccccc2Cl)nc1,9.57
15,CC(=O)Nc1nc(-c2ccccc2)c(-c2ccccc2)o1,-2.83
16,Cc1c(C(=O)N/N=C/c2ccccc2)[nH]c2c([N+](=O)[O-])cccc12,12.3
17,COc1ccc(-n2ncc3c2CC(C)(C)CC3NC(=O)CCC2=NNC(=O)CC2)cc1 (stereo not drawn),17.7
18,CN1/C(=C\C(=O)C(F)F)C(C)(C)c2ccccc21,6.69
19,Clc1cccc(N=NN2CCOCC2)c1Cl,11.4
20,COC(=O)/C=C1/SC(=NC(=O)c2ccc(F)cc2)NC1=O,-0.886
21,COc1ccc(CN(Cc2cccnc2)S(=O)(=O)c2ccc(-n3cnnn3)c(C)c2)cc1OC,-12.8
